# Reference: the supplement of paper PMC12632987
# Whole data set: some 2,300 sequences, median “median log2 fold change of GCK-ALFA target abundance (FLAG IP / Myc IP barcode read proportion)” near 0.095, cut for the lowest 2% near -0.47. This is one part of the list.
# B1: LC3A_127_169 (protein)
# chain: KLKELLEKILEKAEELSKLLQDPNATLEEIEKQAEELLKLAEEALKLDKEVQPVLEDAKQLLEVIKKAKEADEATQEELREQALLLLEGIIIETELLLLK
# B2: LC3A_6_2067 (protein)
# chain: VKVRVEIDVLLPEENEEEATEKAVEIAKKGTEELKKELEEKGYLGEEFKVEIIVEPGFVTVRIDLTVKEEAVPLVEKKAVELQDELSKVADAVLLSIEVE
# B3: LC3A_141_367 (protein)
# chain: MVKELKFEKENLNEDEAIKFMEEVEKKVLEEAKKVNAKKVKIKVEVTVHDPKTGKTTKYKFEDETTYENLDEVLEGFLIEVASLASNNLVSIKVEVTLEK
# B4: LC3A_3_1865 (protein)
# chain: MEEIKKEILELLKKLGRSEETIAEAEKLAEALIERGYEEALKELLEELKKLKNVSDEILLAMFKDLLRKLETENLNEEEIIKTIKEEARIALNENEIEEL
# B5: LC3A_28_808 (protein)
# chain: SLADEIIEAFKAKVDAAIAAGESTTITVEIPAELTPEEARRVAEAVYEAMVKAHKEVGLSVVIDADHRVSPEVLKIFSEMADRLEEEGVPAIIALDEPEK
# B6: LC3A_28_982 (protein)
# chain: NEIKEELEKKLKEAKEAAEKGEPAVITINVKGTTNEEEADLIIKTLEEIAEILKDVEGSAIIISIDRGVDQKIRDRLIEKGEEIEKKYPKVTVIFALDEE
# B7: LC3A_28_821 (protein)
# chain: SAVEERAERFLEEARRAAESGEETTLVLEVESSDTLEDAELLAEALREAAELLAPLKSVGIIIDFTEPVDQEVQDLLAETAEEVEERYPNVSVVIALPEE
# B8: LC3A_28_986 (protein)
# chain: SHMEEALAAALAAAREAAARGEARVFTITVPATATQEDIDLAVEALEEIGEILRGVKGSAIIIDLEAGVPQEHIDKLADAAERVEERNPDVSVIFALDED
# B9: LC3A_147_439 (protein)
# chain: YLVSADVDILTKDAEEEIIKHFEELKKELEEKGFEVKLEIEVEELENGVKYIHIKIDVKAETKEEAEEAANLIIDSVEELEEKLKDKILGSIVSVEIEEA
# B10: LC3A_28_815 (protein)
# chain: MTAEEIIKQIREQAEKGKQSDEMVLIEVKISGTITEEEAKEIMEVIREESAELAKDRPVAVLIDLEAPISQEVIDLIADMAEEIEKELPNVSVIIALPEE
# B11: LC3A_147_410 (protein)
# chain: WIVEVDVDILTKDAEEEVIEYFEELVEELKKEGYKVELEIEVEKLPNGETYIEVKITVEAETEEEAKEAAQKILDRIDEMEEKLKDKILGSLISVEISKK
# B12: LC3A_28_702 (protein)
# chain: SHIEKQIKKAKEIVDEAVAKGEDALLEFTITGSDTQEDIEKKLETIEEAAEKMSDVAKLYVVVDVGKDVPQERIDYIADKLEEIEEKYPNVTSVIALDEN
# B13: LC3A_3_1737 (protein)
# chain: MEEKLEEVRERLEELGFSPEVIEAALRVAEALLERGFEEAVEVLLEELERLKDLPDEILLAMLEDILAYVESNDVSEEEVIEKIREEARIARNEAEIEEL
# B14: LC3A_40_1915 (protein)
# chain: MYTLSIDILADDPAATAAALDAAIEKIKAKIKSEEGEKIIAAFDEMRAQAAAGQPAEATIEGISLEEANTVVQILEEAEAALHAAGVKVAALISIEEEEE
# B15: LC3A_free_39_2218 (protein)
# chain: MEEEIEKLIKEIAEESGLDYEEVKKKLEEIKEVGGLSNEQMLEIAKALLEAVKAGADAKEILEEMLKIAKELTAKGKSPEEIAKEILQTIEDYRNLVPLE
# B16: LC3A_132_282 (protein)
# chain: GEEEAEKVIKEIKKLVEEAKENADDEEKVRELLEKLRKFLEKVAKEKSPEVVAKAFKVAADELDELSRLLAEKGKEELALEADSLAIEAASLSDRAEKKI
# B17: LC3A_28_967 (protein)
# chain: SRLEESLEKALKEAKEAAKKGEAKTIVIKVPGDTTEEDVEKVIEALEEIAEILKDVKGAAILIDVEPGVSQEHIDKLADAAEEIEEKYPNVTVIIALEEE
# B18: LC3A_17_561 (protein)
# chain: MEEIKKEVEELLEELEEAVEEAKELFPEKEEELEEKLEEIKELIKEGKLKEALEKAAELADEIADLAEEGEEEDPERMSLLLMDANGIEIEAIGLLLKLE
# B19: LC3A_3_1481 (protein)
# chain: MEEELEKAVAALKAAGKSQETIDALKKAVNALIEKGYENAAKVLIDEMLKHIDLPDEDLLAAAELALELVETSSLDEEEIAARIRQIFDDVAGIEALDEE
# Biological target: MAP1LC3A, Q9H492
# Assay: median log2 fold change of GCK-ALFA target abundance (FLAG IP / Myc IP barcode read proportion) (log2 ratio); each designed protein is fused to an ALFA-tag nanobody in HEK293 cells to bring the named protein to FLAG-tagged glucokinase (GCK); Myc marks an untargeted standard; higher = target protein stabilised (more abundant)
# Conditions: target protein: 3xFLAG-MCP-GCK-ALFA reporter; HEK293 landing pad (RPLP)
# How it was run: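 Sequencing of reverse-transcribed, amplified circular RNA barcodes from anti-FLAG and anti-Myc immunoprecipitates provided the readout for an ALFA-nanobody-fused binder library recombined into HEK293 landing-pad cells. Those cells were induced with 2 μg mL^−1 doxycycline, transfected with a plasmid expressing a FLAG-tagged target and a Myc-tagged standard, and lysed after 48 h. Target abundance is the per-binder median log2 ratio of FLAG to Myc barcode read proportions. Only barcodes at a proportion of ≥10^−7 in both replicates and binders with ≥3 barcodes per replicate were kept, with a 10^−6 pseudocount added before the two replicates were pooled.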
row,Binder,median log2 fold change
1,B1,0.381
2,B2,-0.0929
3,B3,0.327
4,B4,0.232
5,B5,0.329
6,B6,-0.196
7,B7,0.00388
8,B8,-0.173
9,B9,-0.281
10,B10,-0.179
11,B11,-0.128
12,B12,-0.389
13,B13,0.247
14,B14,0.241
15,B15,0.239
16,B16,0.221
17,B17,0.434
18,B18,-0.157
19,B19,0.184
